Data published in ChEMBL document CHEMBL4888484, “Replenishing the malaria drug discovery pipeline: Screening and hit evaluation of the MMV Hit Generation Library 1 (HGL1) against asexual blood stage Plasmodium falciparum ,using a nano luciferase reporter read-out” (2022).
Screen size: about 150,000 compounds; about 540 (0.36%) showed an effect of 50% or more. The list shows a part of the results. Where a SMILES comes first, the peptide text is derived from it. The star is where a group is joined. Cbz = O=C(OCc1ccccc1)*

These compounds were tested on Plasmodium falciparum (assay: Primary screen in NF54 nanoGlo assay, in single point, at 2uM, 72h; a lower Z score goes with more inhibition). Conditions: timepoint 72 hour.
Type: functional, Erythrocyte

Row | Compound | % Inhibition [%] | Z score
1 | CC[C@H](NC(C)=O)c1nc(-c2ccco2)nn1CC(C)(C)O | -3 | 0.54
2 | COCCCN(CCOC)C(=O)c1ccc(C(C)=O)[nH]1 | 2 | -0.32
3 | CN(CCCc1cnn(C)c1)c1ccc2cc[nH]c2n1 | 3 | -0.59
4 | CC(C)CC(=O)NCCc1noc(C2CC2)n1 | -9 | 1.2
5 | CCCNC(=O)c1ccc(COc2ccc3c(c2)[C@H](c2cccc(F)c2)N(C(=O)C(C)(C)C)CC3)o1 | -12 | 1.46
6 | Cc1ccc2oc(-c3cc(NC(=O)c4ccc(-c5cccc(Cl)c5)o4)ccc3O)nc2c1 | -10 | 1.14
7 | COCCCC(=O)N1CCC[C@H]1Cn1ccnn1 | -8 | 1.05
8 | Cn1nc(-c2nnc(-c3cccc(Cl)c3)o2)c2ccccc2c1=O | -7 | 1.23
9 | Cc1[nH]ccc1C(=O)N1CCO[C@@H](CF)C1 | -14 | 1.75
10 | O=C(Cn1ccc2ccccc21)N1CC(n2ccnn2)C1 | -7 | 0.84
11 | Cc1noc(Cn2cccc(C(F)(F)F)c2=O)n1 | -12 | 1.05
12 | Cc1cc(C)cc(C2(CNC(=O)[C@@H]3NCCc4[nH]cnc43)CCCC2)c1 | 10 | -1.36
13 | C[C@]1(O)CCN(C(=O)c2cccc3sc(C(F)(F)F)nc23)C1 | -1 | 0.1
14 | CCCn1cc(C(=O)N2C[C@H](C(=O)O)[C@@H](c3ccccc3C)C2)c(C)n1 | -4 | 0.45
15 | CCN1CCC[C@@H]1CN(C)C(=O)c1nccc2c(S(N)(=O)=O)cccc12 | -6 | 1.16
16 | c1ccc2c(c1)C[C@H](CNc1ncnc3ccsc13)O2 | -20 | 3.18
17 | Cc1cccc(C(=O)Nc2cccc(C(=O)N3CCc4sccc4C3)c2C)n1 | -17 | 2.34
18 | C=CCN(CC=C)C(=O)CN1CCC[C@H]1c1nonc1C | -12 | 1.11
19 | COc1ccc(C2=C[C@@H](c3ccccc3Cl)n3ncc(C(=O)Nc4ccc(C)cc4)c3N2)cc1 | -3 | 0.35
20 | CC(NC(=O)C(C)c1ccc(Cl)s1)c1ncon1 (centres undefined) | -13 | 1.14
21 | O=C(Nc1nc(C(F)(F)F)cs1)N[C@H]1CC[C@@H](CO)C1 | -3 | 0.63

Row | Compound | % Inhibition [%] | Z score
22 | CCN1CCC(n2nccc2NCc2ccc(F)cc2)CC1 | 2 | -0.29
23 | CCOC(=O)CN1CCCN(c2nc(OC)ncc2Cl)CC1 | -4 | 0.44
24 | CCN1CCC(N(C)C(=O)Nc2ccc(N3CCOCC3)cc2C)CC1C (centres undefined) | -11 | 1.93
25 | Cc1cc2nccc([C@H](C)Oc3ccc(-c4ccccc4)c(F)c3)n2n1 | 38 | -1.09
26 | NC(=O)c1cn(C2CCN(C(=O)NCc3cccc4ccsc34)CC2)nn1 | 2 | -0.36
27 | NC(=O)C1(CNC(=O)c2ccccc2OC[C@H]2CCCO2)CCCC1 | 0 | -0.03
28 | Cc1nn(C)cc1CN1CCN(Cc2ccccc2)[C@H]2CS(=O)(=O)C[C@H]21 | -7 | 1.36
29 | Cc1ccc(C(=O)NCc2nc3ccccc3[nH]2)c(=O)[nH]1 | -7 | 0.9
30 | NC(=O)c1cc2c(nc1N1CC[C@]3(CC(=O)NC3=O)C1)CCC2 | 5 | -0.89
31 | COC[C@@H]1C[C@@H](O)CN1C(=O)CC1CC2CCC1C2 (some centres undefined) | -5 | 0.95
32 | O=C(CCN(C(=O)c1ccccc1F)C1CCCCC1)Nc1nnc(-c2cccc(Cl)c2)s1 | -16 | 2.31
33 | O=C(NCC1(Cc2ccccc2)CCC1)[C@@H]1CCCN1C(=O)c1ccccn1 | 0 | -0.07
34 | Cc1nc(-c2ccc(N3CCC[C@H]3C(=O)N(C)C)nc2)[nH]c(=O)c1C | 16 | -1.9
35 | CCOCCCNC(=O)N1CCC2(CC1)C[C@@H](N(C1CC1)S(=O)(=O)CC)CCO2 | -7 | 1.15
36 | COC(=O)C1CCCN1C(=O)C1CCCN1C(=O)CNC(=O)OCc1ccccc1 (stereo not drawn) (Cbz-Gly-Pro-Pro-OMe; configuration not given here) | -1 | 0.12
37 | CCC1Oc2ccc(NC(=O)c3ccccc3)cc2CN(C2CCCc3ccccc32)C1=O (centres undefined) | -10 | 1.25
38 | CC1CN(C(=O)C2CCN(C(=O)c3ccc(C(C)C)cc3O)CC2)CC(C)O1 (centres undefined) | -3 | 0.46
39 | O=C(Cc1csc(-c2cccnc2)n1)NC[C@H]1CCCO1 | 6 | -0.77
40 | CCCN(Cc1c(-c2ccccc2)noc1N(C)Cc1ccccc1)C[C@H](O)COC(C)C | 3 | -0.41
41 | COc1ccc(-c2nn3c(Nc4cccc(C)c4)cc(C)nc3c2C)cc1OC | -11 | 2.03
42 | C=CCN(CC(=O)N1CCN(c2ccc(-c3cccc(OC)c3)nn2)CC1)C(=O)c1cccc(OC)c1 | -7 | 1.05

Row | Compound | % Inhibition [%] | Z score
43 | O=S(=O)(Nc1nccc(C2CC2)n1)c1ccc2c(c1)CCCC2 | -9 | 1.22
44 | O=C(c1cnc(C2CC2)[nH]c1=O)N1CCC([C@@H](O)CCc2ccccc2)CC1 | -2 | 0.32
45 | CCN1CCN(C(=O)c2csc(C)c2-c2ccc(C)cc2)CC1 | -18 | 1.62
46 | COc1ccccc1CCC(=O)N1CCCN(c2cc(-c3ccc(Cl)cc3)n[nH]2)CC1 | -21 | 2.13
47 | Nc1c(NC(=O)NCCc2ccccc2)c(-c2ccccc2)nn1-c1ccc(F)cc1 | -5 | 0.68
48 | CC(C)(C(=O)N1CCCS(=O)(=O)CC1)C1CC1 | 29 | -3.27
49 | O=C(CC1CCCCC1)N1CCC2(CC1)Nc1ccc(Cl)cc1-n1cccc12 | -19 | 2.51
50 | FCCn1ncnc1CN1CC[C@H](Cc2ccc(F)c(F)c2)C1 | -3 | 0.43
51 | COc1cc(C(=O)N2C[C@H](NS(=O)(=O)N(C)C)[C@@H](C(C)C)C2)ccn1 | -17 | 2.25
52 | CC1=CCN(C(=O)c2cccc(S(=O)(=O)NCc3cccnc3)c2)CC1 | -3 | 0.51
53 | COc1ccc(C)cc1NC(=O)[C@@H]1CCCN1C(=O)c1cnnn1C | -3 | 0.41
54 | O=c1cc2c(nn1Cc1ccccc1Cl)-c1ccccc1CC2 | 34 | -4.43
55 | O=C(Cc1cccc(F)c1F)N1C[C@@H]2CC[C@@H](C2)C1 | -7 | 0.92
56 | CCc1ccsc1C(=O)Nc1cnccc1O | 8 | -1.51
57 | COCC1(CNc2cncc(C(=O)N(C)C)n2)CCC1 | -10 | 2.14
58 | O=C(CN1CCOC1=O)NCCN1Cc2cc(Cl)ccc2OCC1=O | -13 | 2.14
59 | C=CCN(Cc1ccc(C#N)cc1)[C@H]1CCN(CC(F)(F)F)C1=O | -8 | 1
60 | Cc1nc(-c2ccc(Cl)c(S(=O)(=O)N3CCC(C(=O)Nc4ccccc4F)CC3)c2)no1 | -5 | 0.64
61 | O=C(CCc1cc2n(n1)CCCN(C[C@H]1CCCCO1)C2)NC1CC1 | -5 | 0.47
62 | C=CCn1c(=O)c2sc(N3CCCCC3)nc2n(CC(=O)NCc2ccccc2)c1=O | -28 | 2.43
63 | CCCCc1nnc(NCc2cccn2C)s1 | 13 | -1.26

Row | Compound | % Inhibition [%] | Z score
64 | CC(CO)(NC(=O)CC1CC2CCC1C2)c1ccc(O)cc1 (centres undefined) | -7 | 0.93
65 | CCOC(=O)c1c(C)c(CCC(=O)N2CCN(c3ccccn3)CC2)n(C)c1C | -4 | 0.78
66 | CCCN(C)S(=O)(=O)NCc1cccc(N)c1 | -3 | 0.52
67 | CCNC(=O)c1cccnc1Oc1cccc(NS(=O)(=O)c2ccccc2)c1 | -8 | 1.16
68 | CC(C)[C@H]1CCCN(C(=O)CCn2cccn2)CC1 | -15 | 1.9
69 | C=CC[C@@H]1N(C(=O)CCN2CCN(CC)CC2)CCCC1(C)C | 1 | -0.18
70 | C[C@H](NC(=O)Nc1ccc(C(C)(C)C#N)cc1)C(=O)N(C)C | -5 | 0.73
71 | FC1(F)CCNC[C@@H]1COCc1ccccc1 | 7 | -1.25
72 | COc1ccc(NC(=O)N2CC[S@+]([O-])C(C)(C)C2)c(Cl)c1 | -6 | 0.87
73 | CN(C)S(=O)(=O)N1CCC[C@@]2(CCC(=O)N(Cc3ccccn3)C2)C1 | -11 | 2.16
74 | CS(=O)(=O)c1c(Cl)cccc1NC(=O)c1cnc([C@@H]2CCCO2)s1 | -11 | 1.58
75 | N#Cc1cccc(CN2CC(n3cc(C(=O)NCC4CC4)nn3)C2)c1 | -13 | 2.55
76 | CCN(Cc1noc(C2CCC2)n1)C(=O)N[C@H](C)c1cccc(OC)c1 | 2 | -0.25
77 | c1ccc(-c2ncn(CCc3ccncc3)c2-c2ccccc2)cc1 | 17 | -2.1
78 | O=C(CCc1c(Cl)cccc1Cl)NCCOCCN1C(=O)CCC1=O | -7 | 1.12
79 | Cc1nnc(CN2CCC3(CC2)CN(C[C@H](C)c2ccccc2)C(=O)O3)o1 | -8 | 1.04
80 | O=C(c1nc(C2CC2)n(-c2ccccc2)n1)N1CCCCCCC1 | -1 | 0.13
81 | O=S(=O)(C[C@H]1CCCC1(F)F)NC12CCC(CC1)C2 | -1 | 0.15
82 | CN(C)c1cncc(-c2cc(O)cc(CC[C@H]3CCCCN3)c2)n1 | -2 | 0.33
